A lower IC50 marks a more sensitive line; a limit (>, <) means that the fit lies beyond the doses tested. AUC sums up the same curve from the lowest dose to the 256-fold higher top dose; it is 1 without any effect and falls as sensitivity rises.
Compound: CC[C@H](Nc1ncnc2[nH]cnc12)c1nc2cccc(F)c2c(=O)n1-c1ccccc1 [CAL-101]
Assay: Viability of human cancer cell lines after 72 h of drug (GDSC screen)
Method: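 Human cancer cell lines in 384-well plates, medium with 10% serum, drug for 72 h over a 256-fold dose range (nine 2-fold or five 4-fold steps up to the top dose). Adherent lines were fixed and stained with the nucleic acid dye Syto60, suspension lines read with resazurin; signal relative to control wells, capped at 0 and 100%. One two-parameter sigmoid per drug and line, fitted in a mixed model over all curves with the slope shared within a line.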

Question: For “SK-N-AS (neuroblastoma, adherent, top dose 20 µM)”, which AUC is on record?
Answer: 0.936

Question: And the IC50?
Answer: > 20 µM

Question: With “SK-N-DZ (neuroblastoma, adherent, top dose 20 µM)” as the cell line, how does the AUC read?
Answer: 0.988

Question: And the IC50?
Answer: > 20 µM

Question: How did the AUC turn out when “SK-N-FI (neuroblastoma, adherent, top dose 20 µM)” was run?
Answer: 0.97

Question: What about the IC50 of the same cell line?
Answer: > 20 µM

Question: Which AUC does the source give for “SK-N-SH (neuroblastoma, adherent, top dose 20 µM)” here?
Answer: 0.953

Question: And the IC50?
Answer: > 20 µM

Question: Which results are given for “SK-PN-DW (Ewing sarcoma, adherent, top dose 20 µM)”?
Answer: AUC: 0.96; IC50: > 20 µM

Question: Which AUC does the source give for “SK-UT-1 (soft tissue, adherent, top dose 20 µM)” here?
Answer: 0.986

Question: And the IC50?
Answer: > 20 µM

Question: “SKG-IIIa (cervix, adherent, top dose 20 µM)” was tested. Which AUC did it give?
Answer: 0.981

Question: And the IC50?
Answer: > 20 µM

Question: What does the source list for SKN (uterus, adherent, top dose 20 µM)?
Answer: AUC: 0.89; IC50: > 20 µM

Question: How did the AUC turn out when “SKN-3 (head and neck, adherent, top dose 20 µM)” was run?
Answer: 0.958

Question: And the IC50?
Answer: > 20 µM

Question: How did the AUC turn out when “SLVL (B-cell lymphoma, suspension, top dose 20 µM)” was run?
Answer: 0.825

Question: What about the IC50 of the same cell line?
Answer: 12.9 µM

Question: What does the source list for “SN12C (kidney, adherent, top dose 20 µM)”?
Answer: AUC: 0.973; IC50: > 20 µM

Question: With “SNB75 (glioma, adherent, top dose 20 µM)” as the cell line, how does the AUC read?
Answer: 0.944

Question: What about the IC50 of the same cell line?
Answer: > 20 µM

Question: With “SNG-M (endometrium, adherent, top dose 20 µM)” as the cell line, how does the AUC read?
Answer: 0.935

Question: What about the IC50 of the same cell line?
Answer: > 20 µM

Question: Which results are given for “SNU-61 (large intestine, adherent, top dose 20 µM)”?
Answer: AUC: 0.979; IC50: > 20 µM

Question: How did the AUC turn out when “SNU-81 (large intestine, adherent, top dose 20 µM)” was run?
Answer: 0.787

Question: And the IC50?
Answer: 12.2 µM

Question: How did the AUC turn out when “SNU-175 (large intestine, suspension, top dose 20 µM)” was run?
Answer: 0.98

Question: And the IC50?
Answer: > 20 µM

Question: Which AUC does the source give for “SNU-182 (liver, adherent, top dose 10.24 µM)” here?
Answer: 0.952

Question: What about the IC50 of the same cell line?
Answer: > 10.2 µM

Question: With “SNU-387 (liver, adherent, top dose 20 µM)” as the cell line, how does the AUC read?
Answer: 0.895

Question: And the IC50?
Answer: > 20 µM

Question: With “SNU-398 (liver, adherent, top dose 20 µM)” as the cell line, how does the AUC read?
Answer: 0.983

Question: And the IC50?
Answer: > 20 µM

Question: What does the source list for “SNU-407 (large intestine, adherent, top dose 20 µM)”?
Answer: AUC: 0.929; IC50: > 20 µM

Question: With “SNU-423 (liver, adherent, top dose 20 µM)” as the cell line, how does the AUC read?
Answer: 0.854

Question: What about the IC50 of the same cell line?
Answer: > 20 µM

Question: Which AUC does the source give for “SNU-449 (liver, adherent, top dose 20 µM)” here?
Answer: 0.985

Question: And the IC50?
Answer: > 20 µM

Question: What does the source list for “SNU-475 (liver, adherent, top dose 20 µM)”?
Answer: AUC: 0.973; IC50: > 20 µM

Question: Which AUC does the source give for “SNU-1040 (large intestine, adherent, top dose 20 µM)” here?
Answer: 0.888

Question: And the IC50?
Answer: > 20 µM

Question: Which results are given for “SNU-C1 (large intestine, suspension, top dose 20 µM)”?
Answer: AUC: 0.96; IC50: > 20 µM

Question: What does the source list for “SNU-C2B (large intestine, adherent, top dose 20 µM)”?
Answer: AUC: 0.965; IC50: > 20 µM

Question: How did the AUC turn out when “SNU-C5 (large intestine, adherent, top dose 20 µM)” was run?
Answer: 0.967

Question: And the IC50?
Answer: > 20 µM

Question: How did the AUC turn out when “SR (lymphoid neoplasm, suspension, top dose 20 µM)” was run?
Answer: 0.824

Question: What about the IC50 of the same cell line?
Answer: 10.3 µM

Question: Which results are given for “ST486 (Burkitt lymphoma, suspension, top dose 20 µM)”?
Answer: AUC: 0.925; IC50: > 20 µM

Question: How did the AUC turn out when “STS-0421 (soft tissue, adherent, top dose 20 µM)” was run?
Answer: 0.947

Question: And the IC50?
Answer: > 20 µM

Question: For “SU8686 (pancreas, adherent, top dose 20 µM)”, which AUC is on record?
Answer: 0.975

Question: And the IC50?
Answer: > 20 µM

Question: Which AUC does the source give for “SU-DHL-1 (anaplastic large cell lymphoma, suspension, top dose 20 µM)” here?
Answer: 0.959

Question: What about the IC50 of the same cell line?
Answer: > 20 µM

Question: “SU-DHL-8 (B-cell lymphoma, suspension, top dose 20 µM)” was tested. Which AUC did it give?
Answer: 0.824

Question: And the IC50?
Answer: 10.8 µM

Question: Which AUC does the source give for “SU-DHL-10 (B-cell lymphoma, suspension, top dose 20 µM)” here?
Answer: 0.607

Question: And the IC50?
Answer: 2.26 µM

Question: With “SU-DHL-16 (B-cell lymphoma, suspension, top dose 20 µM)” as the cell line, how does the AUC read?
Answer: 0.978

Question: What about the IC50 of the same cell line?
Answer: > 20 µM

Question: What does the source list for “SUIT-2 (pancreas, adherent, top dose 20 µM)”?
Answer: AUC: 0.924; IC50: > 20 µM

Question: For “SUP-B15 (lymphoblastic leukaemia, suspension, top dose 20 µM)”, which AUC is on record?
Answer: 0.771

Question: What about the IC50 of the same cell line?
Answer: 7.33 µM

Question: For “SUP-HD1 (Hodgkin lymphoma, suspension, top dose 20 µM)”, which AUC is on record?
Answer: 0.947

Question: What about the IC50 of the same cell line?
Answer: > 20 µM

Question: “SUP-M2 (anaplastic large cell lymphoma, suspension, top dose 20 µM)” was tested. Which AUC did it give?
Answer: 0.893

Question: What about the IC50 of the same cell line?
Answer: 13.9 µM

Question: Which results are given for “SUP-T1 (T-cell lymphoblastic leukaemia, suspension, top dose 20 µM)”?
Answer: AUC: 0.938; IC50: > 20 µM

Question: Which AUC does the source give for “SW13 (adrenal gland, adherent, top dose 20 µM)” here?
Answer: 0.988

Question: What about the IC50 of the same cell line?
Answer: > 20 µM
